Data from the BET-seq Pho4 binding data (Le et al. 2018).
This is one part of the list. The energies were worked out here from pooled read counts, against the library average; single values are noisy.

These sequences were tested against T1, Pho4 (S. cerevisiae) (UniProt P07270) (assay: relative binding free energy (BET-seq); higher = weaker binding). Details: reference: library average.
T1 sequence: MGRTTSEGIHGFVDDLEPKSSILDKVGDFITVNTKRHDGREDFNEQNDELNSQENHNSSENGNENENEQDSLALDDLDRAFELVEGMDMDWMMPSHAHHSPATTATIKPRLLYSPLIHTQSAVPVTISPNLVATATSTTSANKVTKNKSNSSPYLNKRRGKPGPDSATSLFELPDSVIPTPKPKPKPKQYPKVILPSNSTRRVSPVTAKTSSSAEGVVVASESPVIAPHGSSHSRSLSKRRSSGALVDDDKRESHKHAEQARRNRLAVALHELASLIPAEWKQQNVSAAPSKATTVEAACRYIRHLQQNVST

Sequence | relative binding free energy [kcal/mol]
GTTTGCACGTGTGTTG | 0.04
CTGTGCACGTGGCGTT | -0.17
TTCGTCACGTGAAGAT | 0.33
AAAGGCACGTGGCGGG | -0.12
TGCTGCACGTGTGAAT | 0.09
ATCGTCACGTGTGTGA | 0.22
TGGGGCACGTGCTGTG | -0.17
GTTCTCACGTGTGATT | 0.36
GCTCGCACGTGGTGGG | -0.05
ATGTGCACGTGTTATT | -0.11
TGGGGCACGTGGACGC | -0.18
CTATGCACGTGTGGTC | 0.01
CATATCACGTGGTAGT | 0.06
AGGTTCACGTGTTGCA | 0.17
TTAAGCACGTGAGTAG | 0.15
ATGAGCACGTGGGGTC | -0.24
AGACGCACGTGACGGG | 0.1
CTGGTCACGTGAGTCA | 0.36
GAGCACACGTGTGTGG | 0.14
AATTGCACGTGGGTAG | -0.15
AGTATCACGTGCGGTG | 0.09
GGTAACACGTGTTAGA | -0.12
GAGGTCACGTGTAAGT | 0.15
ATATACACGTGGCGTT | -0.14
TGGCTCACGTGGTTAT | 0.22
TTGTGCACGTGCATAT | -0.22

Sequence | relative binding free energy [kcal/mol]
AATTGCACGTGTGACT | 0.14
TCAGGCACGTGAATGG | 0.18
ACTAGCACGTGTGGGT | -0.13
GGTCGCACGTGTAGAG | 0.01
TGCGTCACGTGTGTAA | 0.11
ATTAACACGTGTGCAG | 0.09
GATGGCACGTGATAGT | 0
GGCTACACGTGGGTGG | 0.03
TGTGTCACGTGTCGAT | 0.1
TAGTGCACGTGGGCGC | -0.18
TAGGGCACGTGAGACT | 0.1
ATGGTCACGTGGGGGT | -0.01
GTTAACACGTGTTCGG | 0.11
TCTTACACGTGCGTGT | -0.01
TGTTACACGTGGGCGG | 0.03
ACTTGCACGTGATTTG | 0.06
CGGGGCACGTGGGGCA | -0.23
TGCGTCACGTGAGTTT | 0.33
GGTATCACGTGGCTGT | 0.09
GGCGGCACGTGAGGCT | 0.03
TTGTTCACGTGCGGTT | 0.25
CTGTTCACGTGAGGTT | 0.39
AATGTCACGTGTGTGT | 0.12
TAGTACACGTGTGCGG | 0.04
GCATTCACGTGGGCTT | 0.3
TATTTCACGTGAGGTC | 0.32

Sequence | relative binding free energy [kcal/mol]
GTTAACACGTGATGGG | 0.2
GTCGTCACGTGGAGTT | 0.21
GTAGACACGTGTTGGG | 0.08
TGTGTCACGTGCGGGT | -0.03
GAGCGCACGTGGCTGG | -0.19
GCGGTCACGTGGGAGT | -0.07
TACTTCACGTGTCAGG | 0.46
GGAGGCACGTGTTGTC | -0.1
GTTTCCACGTGAATGG | 0.35
GCAGTCACGTGAGGTT | 0.5
TTAATCACGTGGATTC | 0.26
TATCACACGTGGAGTT | 0.12
GTTATCACGTGGGCGA | -0.02
GGGGGCACGTGACTAT | 0.03
GAGGTCACGTGGCTTT | 0.02
GGTAGCACGTGTAGGA | 0.04
TTTGACACGTGACGGT | 0.12
TGGATCACGTGGTCTA | 0.02
ATGGACACGTGAGAAT | 0.37
TGGTACACGTGATGGC | 0.19
TAGGACACGTGCTTGT | 0.11
ATTGACACGTGTAAGA | 0.17
AAGGTCACGTGAGGGA | 0.27
TATTTCACGTGAGGAC | 0.37
GCTATCACGTGTAGGT | 0.34
GAGTTCACGTGGCTGT | 0.34

Sequence | relative binding free energy [kcal/mol]
GCATGCACGTGAGTGT | 0.07
GATTACACGTGTGGGA | 0.45
TTTAGCACGTGTACGG | -0.08
AGAGTCACGTGGCGGT | -0.05
GAAATCACGTGGGGCA | 0.34
GTGTCCACGTGTGATG | 0.13
TTGTACACGTGCTTTA | -0.08
AGCATCACGTGGCGGG | 0.08
AAGGTCACGTGGTTAA | -0.01
TTTTTCACGTGTTGTA | 0.29
AAGTTCACGTGGCAGG | 0.17
AGGGTCACGTGATAGA | 0.26
TGTGCCACGTGGGGGA | -0.19
ATATGCACGTGGGGAG | -0.2
CGTGTCACGTGTGGCG | 0.03
TATTACACGTGAAGAG | 0.41
TGTTCCACGTGGAATT | 0.27
GTTAACACGTGGTTTA | 0.1
TCCGGCACGTGCTGGT | 0
GGTTTCACGTGGTCAC | 0.34
AAATGCACGTGGTGTA | -0.05
TTAATCACGTGGACTT | 0.16
TTTGTCACGTGTTGAA | 0.04
TGCTGCACGTGTTTTG | -0.02
CAGTTCACGTGAGGTT | 0.47
AGGAGCACGTGTGAGC | 0.06

Sequence | relative binding free energy [kcal/mol]
TTAGTCACGTGGTCAT | -0.02
GTTGTCACGTGTGTTG | 0.22
CCGTGCACGTGGGTTG | -0.25
TGTAGCACGTGAAGAG | 0.1
CTGGGCACGTGCCGGT | -0.2
GTGGACACGTGCCGGT | -0.08
AGAGACACGTGGGAGG | -0.12
GGTTTCACGTGGGTGG | 0.28
TCGGTCACGTGGACTT | 0.18
TAGATCACGTGTCGGG | 0.08
AAGTTCACGTGTTGTA | 0.31
TTGTTCACGTGTGCAT | 0.35
TGAATCACGTGTTTGA | 0.29
ATCTTCACGTGTTGCT | 0.27
GAGGGCACGTGATTTG | 0
GGGTGCACGTGGGTTA | -0.1
GAGTTCACGTGTGAAT | 0.52
GTTATCACGTGGGATC | 0.22
GATAACACGTGGATAT | 0.17
GCTGTCACGTGCAGGG | 0.06
GGGATCACGTGGTCAT | 0.06
ACATGCACGTGGGGGG | -0.27
CTTTGCACGTGCGTAG | -0.03
ACTGGCACGTGGGATG | -0.3
TGACTCACGTGGGTTT | 0.15
GGTTACACGTGACATG | 0.21

Sequence | relative binding free energy [kcal/mol]
TGCGGCACGTGCGTAG | -0.18
GAGAGCACGTGTAGCG | -0.01
GTGGCCACGTGTCTTT | 0.12
GGTTCCACGTGATGTA | 0.16
TTTCTCACGTGTTTAT | 0.17
CGGCGCACGTGTAGTG | -0.16
GTTGGCACGTGATGGG | 0.12
GCGGACACGTGGTGGT | 0
AAAGGCACGTGGTGAA | -0.22
TAGTCCACGTGGTGTG | -0.07
GTAAACACGTGTATTG | 0.15
GTGCGCACGTGGGATT | -0.16
CGGGCCACGTGGGGCT | -0.37
AATGGCACGTGATGGA | -0.07
GACTACACGTGTTGGG | 0.14
AGGTGCACGTGGCAAT | -0.13
TTATTCACGTGAGGGA | 0.23
GATGGCACGTGGTCTG | -0.16
AAGTTCACGTGTTAAA | 0.27
AGAATCACGTGGGTTC | 0.1
TGTATCACGTGCGGCA | 0.05
GGATTCACGTGGCTGT | 0.17
ATTTTCACGTGGAGAT | 0.19
TGCTGCACGTGGTGTA | -0.28
TCAGACACGTGGGGCT | -0.07
TTATGCACGTGGGACT | -0.17

Sequence | relative binding free energy [kcal/mol]
ATTAGCACGTGAAGAG | 0.16
TGTGTCACGTGCCGTG | -0.11
TGTCGCACGTGAAGTG | 0.19
TAGTACACGTGTTGAG | 0.09
TTGGTCACGTGAAAAC | 0.53
GATTACACGTGTAGTG | 0.19
GGGGGCACGTGAGTTC | 0.11
TCATTCACGTGGTTGT | 0.44
TGATGCACGTGTGGCG | 0.12
GGGCACACGTGAGGAG | 0.3
GGCTTCACGTGATGTG | 0.38
GGGTGCACGTGCGGAG | -0.08
ATTGTCACGTGAATTA | 0.26
GTAGACACGTGTTTTG | 0.1
TGTTTCACGTGCAGGT | 0.3
CGTTACACGTGGGGTG | -0.01
GATATCACGTGGATAG | 0.14
TATGTCACGTGTGAGT | 0.22
TGATGCACGTGAGCGT | 0.28
AAGCGCACGTGCGAGG | 0.04
TTTTGCACGTGGGAGA | -0.01
TGGTTCACGTGCTGGA | 0.26
CTTTTCACGTGGATAG | 0.35
GTGATCACGTGAACTT | 0.4
GGAGTCACGTGACTTG | 0.28
AACTTCACGTGAGGTG | 0.27

Sequence | relative binding free energy [kcal/mol]
ATGGGCACGTGTAAGA | 0.05
TTTTACACGTGGTGTT | 0.03
GGGAGCACGTGGATTA | -0.03
CTGTACACGTGGGTCG | 0.01
GGTAGCACGTGATATG | 0.05
GTTGACACGTGCTCTG | 0.15
TGCTTCACGTGAGTTG | 0.32
GGGTTCACGTGGGAAA | 0.34
GAGCGCACGTGGGGGG | -0.18
AGATCCACGTGTATGT | -0.01
AGAGACACGTGTGTGG | -0.1
GGTTCCACGTGCTGGT | 0.08
AGATGCACGTGGTCTG | -0.03
GTTATCACGTGGAGAA | 0.2
TAGATCACGTGAGCGT | 0.16
TAGGTCACGTGAATTA | 0.24
TTTTACACGTGGGAAT | 0.13
GGGTGCACGTGACATT | 0.11
TCGGTCACGTGCGGTG | 0.06
CAGGTCACGTGTGGGT | 0.25
AATGTCACGTGAGGTA | 0.37
GGGGACACGTGTTACG | 0.13
TGTGTCACGTGGGGTG | -0.06
TTGGTCACGTGGATGT | 0.22
GAGGTCACGTGACTTG | 0.36
CGGTGCACGTGCTTGT | -0.11

Sequence | relative binding free energy [kcal/mol]
TTCTACACGTGGTGGT | -0.01
AGTGACACGTGGTTGT | -0.06
TAGGGCACGTGTTTTT | -0.09
TATTACACGTGGTTGG | 0.11
GTATGCACGTGGATTT | 0.04
TGATACACGTGATGAT | 0.15
GTTCGCACGTGTGGCT | 0.01
GGAGGCACGTGAGGAA | 0.14
TGAAGCACGTGGGTGC | -0.24
GGGGACACGTGTCGCG | 0.01
ATGGGCACGTGGGATT | -0.07
TCATGCACGTGGGTGG | -0.11
CGTTACACGTGGCGGG | -0.03
GTGTCCACGTGGTAGT | 0.04
TAAAACACGTGTAGGG | 0.09
TGCGACACGTGCGTTT | -0.03
CGGGTCACGTGCGCTG | 0.1
TTTTTCACGTGACGTA | 0.34
CTGTACACGTGTGGTT | 0.13
GTTACCACGTGGGCGG | -0.13
AGCTGCACGTGTGGTA | 0
GGGGTCACGTGACGCT | 0.24
